PubChem BioAssay AID686978 (National Center for Advancing Translational Sciences (NCATS), 2013)
Screen size: about 420,000 compounds; about 64,000 (15%) were called active. Inconclusive means that the source gave no clear call. Such entries were picked first, then a sample of the others. Calls follow the shape of the dose curve; as a rule, active = well fitted inhibition curve with a large enough effect; inconclusive = small, poorly fitted or top-dose-only effect; inactive = flat fitted curve, though single readings scatter. No potency is given beside an inconclusive call; the fits are too rough.

Experiment: qHTS for Inhibitors of human tyrosyl-DNA phosphodiesterase 1 (TDP1): qHTS in cells in absence of CPT; also: nearly all actives have a fitted effect of over 55% in size
Settings: DT40 Tdp1-/- hTDP1 cells, no CPT, ATP luminescence, 48 h; activity change, negative = growth inhibition: at 46.2 µM (top of the series) unless noted
How it was run: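 Stably hTDP1-transfected Tdp1-null chicken DT40 cells were treated with library compounds minus camptothecin and grown for at least 48 hr at 37 °C, after which cellular ATP was quantified by luminescence.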
% is scaled to controls: 0 for no effect and ±100 for the full control effect; potency is read from the fitted curve at half-maximal effect; tags tell the direction and shape of the fitted curve.

Which Potency does the source give for `CC1CCC(=O)N(CCOc2ccccc2)CC1` (configuration not stated) here?
Its Potency is “inactive”.

Which Potency does the source give for `CCC1=NN2C(=N)/C(=C/c3ccc(OS(=O)(=O)c4ccc(C)cc4)c(OC)c3)C(=O)N=C2S1` here?
The Potency was inconclusive [inhibitor, partial curve].

For `O=C(NCc1ccco1)c1ccccc1-c1ccc(C(F)(F)F)cc1`, which Potency is on record?
Its Potency is inconclusive [inhibitor, single point].

Which Potency does the source give for `COc1ccc(CCNC(=O)CN(C)S(=O)(=O)c2ccc(OC)cc2)cc1` here?
Its Potency is “inactive”.

For `FC(F)(F)c1ccccc1NC(=S)Nn1cnnc1`, which Potency is on record?
Its Potency is “inactive”.

For `COc1ccc(-c2cc(C(F)(F)F)nc(SCC(=O)NCc3ccco3)n2)cc1OC`, which Potency is on record?
Its Potency is inconclusive [inhibitor, single point].

With `COc1cc(Nc2cccc[n+]2C)cc(OC)c1OC` as the compound, how does the Potency read?
Its Potency is “inactive”.

For `COc1cc(/C=N/O)cc(Br)c1OCc1ccc(Cl)cc1`, which Potency is on record?
The Potency was inconclusive [inhibitor, single point].

For `COc1ccccc1N1CCN(/N=C/c2ccc(Cl)c([N+](=O)[O-])c2)CC1`, which Potency is on record?
Its Potency is inconclusive [inhibitor, partial curve, poor fit].

For `Cc1cc(NC(=O)Nc2ccc(C)c(C)c2)no1`, which Potency is on record?
Its Potency is “inactive”.

With `Cc1ccc(CNC(=O)c2cnc(N3CCCC3)nc2C)cc1` as the compound, how does the Potency read?
The Potency was “inactive”.

Which Potency does the source give for `O=C(COc1ncnc2sccc12)NC1CCCCC1` here?
Its Potency is “inactive”.

With `CC1C(=O)N(Cc2cn(CC3CCCCC3)nn2)CCS(=O)(=O)N1Cc1ccc(-c2cccc(CO)c2)cc1` (configuration not stated) as the compound, how does the Potency read?
Its Potency is active: 23.1 µM.

With `CCOC(=O)Cc1csc(NC(=O)Nc2ccc(C)cc2)n1` as the compound, how does the Potency read?
Its Potency is inconclusive [inhibitor, single point].

For `O=C1CCCc2ccccc2N1Cc1ccccc1Cl`, which Potency is on record?
Its Potency is inconclusive [inhibitor, partial curve].

Which Potency does the source give for `COc1ccc(/C=C/C(=O)c2ccccn2)cc1` here?
Its Potency is inconclusive [inhibitor, single point].

With `Cc1cc(C)cc(C(O)c2ncc(-c3ccccc3F)[nH]2)c1` (configuration not stated) as the compound, how does the Potency read?
The Potency was inconclusive [inhibitor, single point].

With `CCCCN(CC)Cc1ccc(CNC(=O)Nc2ccc(Cl)cc2)o1` as the compound, how does the Potency read?
Its Potency is active: 5.8 µM.

For `Cc1cc(C)cc(N(CC(=O)NCc2cccnc2)S(C)(=O)=O)c1`, which Potency is on record?
The Potency was “inactive”.

With `CC(C)C[C@@H](C=O)NC(=O)[C@H](CC(C)C)NC(=O)[C@H](CC(C)C)NC(=O)OCc1ccccc1` as the compound, how does the Potency read?
The Potency was “inactive”.

Which Potency does the source give for `Cc1cc(C)c2c(NC(=O)c3ccccc3Cl)c(C(=O)Nc3ccc(C)c(C)c3)sc2n1` here?
Its Potency is active: 16.4 µM.

With `COc1ccc(C(=S)N2CCN(c3ccccc3C)CC2)cc1OC` as the compound, how does the Potency read?
The Potency was inconclusive [inhibitor, single point].

With `CC(C)Oc1ccc(S(=O)(=O)N2CCCCC2)cc1NC(=O)C1CCCC1` as the compound, how does the Potency read?
The Potency was inconclusive [inhibitor, single point].

Which Potency does the source give for `CC(OC(=O)c1ccccc1O)C(=O)Nc1cccc(Cl)c1` (configuration not stated) here?
Its Potency is active: 13 µM.

For `CC1CCCN(S(=O)(=O)c2ccc(S(=O)(=O)N3CCCN(Cc4ccccc4)C3)cc2)C1` (configuration not stated), which Potency is on record?
Its Potency is inconclusive [inhibitor, single point].

Which Potency does the source give for `O=C(C[n+]1cccc(CNC(=O)c2ccc(OC(F)F)cc2)c1)c1ccccc1` here?
The Potency was “inactive”.

For `CN1CCN(CCCNC(=O)c2cc3c(-c4ccc(Cl)cc4)nn(C)c3s2)CC1`, which Potency is on record?
The Potency was inconclusive [inhibitor, single point].

Which Potency does the source give for `O=C(Nc1cccc(S(=O)(=O)N2CCCCCC2)c1)C1CCN(C(=O)c2ccc(Cl)cc2)CC1` here?
The Potency was inconclusive [inhibitor, single point].

With `O=C(NCc1cccnc1)c1cc(C2CCCN(C(=O)CCCc3ccccc3)C2)on1` (configuration not stated) as the compound, how does the Potency read?
Its Potency is inconclusive [inhibitor, single point].

Which Potency does the source give for `COCc1cc(C)nc(OCC(=O)N/N=C\c2cc(C)n(-c3cccc(C(F)(F)F)c3)c2C)c1C#N` here?
The Potency was inconclusive [inhibitor, single point].

Which Potency does the source give for `COc1cc(CNCCSc2nnnn2C)ccc1OCc1ccccc1` here?
Its Potency is inconclusive [inhibitor, single point].

For `CCOC1CCCc2oc(-c3ccsc3)c(-c3cnc(OC)nc3)c21` (configuration not stated), which Potency is on record?
The Potency was active: 23.1 µM.

With `COc1ccccc1N1CCN(C(=O)CCCn2c(=O)[nH]c3ccsc3c2=O)CC1` as the compound, how does the Potency read?
Its Potency is inconclusive [inhibitor, partial curve, poor fit].

Which Potency does the source give for `CC(=O)c1c(C)[nH]c(C(=O)COC(=O)c2ccc(C)s2)c1C` here?
The Potency was inconclusive [inhibitor, single point].

With `Cc1ccc(C(=O)C[n+]2cccc3cc(C)ccc32)cc1` as the compound, how does the Potency read?
Its Potency is active: 14.6 µM.

For `COCCNC(=O)C(c1ccc(Cl)cc1)N(C(=O)Cn1nnc2ccccc21)c1cccnc1` (configuration not stated), which Potency is on record?
The Potency was “inactive”.

Which Potency does the source give for `CCC1=Nc2cc(C(=O)NC3CCCC3)ccc2Sc2ccc(Cl)cc21` here?
The Potency was active: 0.92 µM.

For `Cc1cc(C)c2nc(SCC(=O)NCCC3=CCCCC3)cc(C)c2c1`, which Potency is on record?
Its Potency is active: 20.6 µM.

With `O=C(Nc1ccc(Cl)cc1)Nc1ccccc1CC[N+](=O)[O-]` as the compound, how does the Potency read?
Its Potency is inconclusive [inhibitor, single point].

With `CC(C)NC(=O)CSc1nnc(-c2ccncc2)n1-c1ccccc1` as the compound, how does the activity change, negative = growth inhibition read?
The activity change, negative = growth inhibition was inconclusive: -28.3% [inhibitor].

With `O=C(CN1C(=O)/C(=C\c2cccc(Br)c2)Oc2ccccc21)NCC1CCCO1` (configuration not stated) as the compound, how does the Potency read?
The Potency was inconclusive [inhibitor, partial curve].

Which Potency does the source give for `COCCn1c(SCC(=O)Nc2ccc(C(C)=O)cc2)nnc1-c1ccco1` here?
The Potency was “inactive”.

Which Potency does the source give for `COCC(=O)Nc1ccc(-c2cn3cccnc3n2)cc1` here?
The Potency was inconclusive [inhibitor, partial curve].

For `Cc1cccc(CNCc2ccccc2)c1`, which activity change, negative = growth inhibition is on record?
Its activity change, negative = growth inhibition is inconclusive: -30.7% [inhibitor].

For `CCN(CC)CCN(C(=O)c1ccc(N2C(=O)CCC2=O)cc1)c1nc2cc3c(cc2s1)OCCO3`, which Potency is on record?
Its Potency is inconclusive [inhibitor, single point].

With `COc1ccccc1CCNC(=O)C(C)n1nc(C)c2c(C)n(-c3ccccc3)nc2c1=O` (configuration not stated) as the compound, how does the Potency read?
The Potency was “inactive”.

For `CC1(c2cccc(Br)c2)NC(=O)NC1=O` (configuration not stated), which Potency is on record?
Its Potency is inconclusive [inhibitor, single point].
